Results published in ChEMBL document CHEMBL4888484, “Replenishing the malaria drug discovery pipeline: Screening and hit evaluation of the MMV Hit Generation Library 1 (HGL1) against asexual blood stage Plasmodium falciparum ,using a nano luciferase reporter read-out” (2022).
Out of some 4,800 compounds screened, about 420 (8.8%) showed an effect of 50% or more. This is one part of the list.

System: Plasmodium falciparum
Test: Confirmatory screen in NF54 nanoGlo assay, in single point, at 2uM, 72h
Format: functional, Erythrocyte
Conditions: timepoint 72 hour

SMILES	% Inhibition
O=C(Nc1nccs1)C1C(c2ccccc2)C1(Cl)Cl (stereo not given)	-18%
O=C(c1cc2c(s1)CCCC2)N1CCC[C@H](c2nnc3ccccn23)C1	-17%
CC(C)(C)C(=O)/C(=N\OC(=O)Nc1ccc(Cl)cc1)n1cncn1	-6%
CCn1c(=O)c(N2CCN(C(=O)Nc3cccc(C)c3C)CC2)nc2ccccc21	-1%
Cc1ccc(S(=O)(=O)Nc2c(S(=O)(=O)c3ccc(C)cc3)c3nc4ccccc4nc3n2CCC(C)C)cc1	98%
O=S(=O)(c1c[nH]c2cccc(F)c12)N1CC[C@]2(CCOC2)C1	-18%
COc1ccc(S(=O)(=O)N2CCN(S(=O)(=O)c3ccc(OC)cc3)C2)cc1	-4%
Cc1nn2c(-c3ccc(-c4ccccc4)cc3)ccnc2c1Br	1%
C=CCCCNc1ccc(C(N)=O)c(F)c1	-1%
CC(=O)N(CC[C@]1(Cc2ccccc2Cl)CCOC(C)(C)C1)Cc1ccco1	-7%
CC(C)(C)OC(=O)N1CCC[C@H]1C(=O)n1ccnc1	-2%
COc1ccc(-c2cc(C(F)F)nc(N3CCN(Cc4ccccn4)CC3)n2)cc1OC	-7%
O=C(Cc1ccc(F)cc1)N[C@H](c1ccccc1)C1CC1	4%
O=C1c2ccccc2C(=O)N1Cc1cnn(CC(F)F)c1	3%
O=C(Nc1[nH]c(=O)ncc1F)c1cccc2ccccc12	84%
CCC(C)(C)NC(=O)c1cn(CC2(O)CCN(Cc3ccccc3)CC2)nn1	-3%
CCNC(=O)c1ccc(-c2nc(CS(=O)(=O)c3ccccc3)c(C)o2)cc1	-13%
O=C1C[C@@H](c2ccc(C(F)(F)F)cc2)c2c(O)nc(N3CCN(CCO)CC3)nc2N1	-4%
Cc1ccc(NC(=O)NC(=O)Cn2ccc(=O)c3sccc32)cc1C	0%
O=C(NCC1CC12CCc1ccccc12)NC1CC2CCC1O2 (stereo not given)	-3%
Cc1cc2c(cc1C)N(CC(=O)Nc1ccc(C(F)(F)F)cc1)C(=O)CC(c1cccs1)=N2	-9%
CC1(C)C(c2ccccc2)=NO[C@@H]1N1CCOCC1	5%
Cc1cccc(N2CCN(C(=O)c3ccc4c(c3)C(=O)N(c3cc(C)on3)C4=O)C[C@@H]2C)c1	-3%
Cc1n[nH]c(CN(C)S(=O)(=O)Cc2cccc(C(F)(F)F)c2)n1	2%
COc1ccc2c(NC(=O)Cc3c(C)noc3C)n[nH]c2c1	0%

SMILES	% Inhibition
N#Cc1nc2c(C#N)c(N)n(CCc3ccccc3)c2nc1C#N	87%
Cc1cc(NC(=O)c2ccncc2)cc2c1OCCO2	-15%
Cc1ccc(CN2CCN(C[C@@H](O)Cn3c4ccccc4n4c(=O)cc(C)c(C#N)c34)CC2)c(C)c1	89%
CC(C)(C)OC(=O)N1CCN(C[C@H]2CN(c3ccc(F)cc3)C(=O)O2)CC1	-11%
CC1(C)Oc2ccc(S(=O)(=O)NC3CCCCC3)cc2NC1=O	-8%
CC[C@H]1CCCCN1c1ccc2nnnn2n1	0%
CCOC(=O)C1CCN(C(=O)Nc2ccc(NC(=O)N3CCC(C(=O)OCC)CC3)cc2)CC1	0%
O=C(OCC(=O)N1CCCc2ccccc21)c1nccc2ccccc12	0%
O=C1NCCC[C@@H]1Nc1ccc(C(F)(F)F)nn1	-3%
CC(C)c1cc(C(C)C)c(S(=O)(=O)N[C@@H](Cc2ccccc2)c2ccc(-c3ccccc3)cc2)c(C(C)C)c1	-10%
Fc1ccc(Nc2nc3c(s2)CCCC3)cc1	-17%
Cc1ccc(S(=O)(=O)NCC(=O)N2CCC[C@H]2c2ccc3c(c2)OCCCO3)cc1C	-4%
COc1cccc(Oc2nc(N3CCN(C)CC3)nc3c2CN(C(=O)Nc2ccccc2)CC3)c1	5%
CCOCC(=O)Nc1ccc(C(C)=O)c(Cl)c1	-9%
N#Cc1c(CN2CCOCC2)cc(=O)n2c1[nH]c1ccccc12	-4%
O=C1C[C@H](C(=O)NC2(c3cc(C(F)(F)F)ccc3Cl)CC2)CN1	-2%
Cc1oc(C)c(C(=O)N2CCc3cnccc32)c1C	-13%
COc1ccc(Nc2nc(C(C(F)(F)F)(C(F)(F)F)C(F)(F)F)nc(C(C(F)(F)F)(C(F)(F)F)C(F)(F)F)n2)cc1	-4%
COc1ccc(C(=O)C[n+]2nc(CNc3ccc(Br)cc3)n3c2CCCCC3)cc1	84%
Cc1cc2nc(C)c(=O)n(CCC(=O)NCCCN(C)C3CCCCC3)c2cc1C	0%
O=C(c1ccc[n+]([O-])c1)N(Cc1ccccc1)Cc1ccccc1	3%
CCC1(CC)CCC(NC(=O)[C@@H]2CCCCC(=O)N2)CC1	-17%
COc1cccc(S(=O)(=O)N(C)[C@H]2CCc3n[nH]c(=O)n3CC2)c1	-4%
CCc1c(C(=O)NCc2ccc(CN3CC(C)OC(C)C3)cc2)[nH]c(C)c1C(C)=O (stereo not given)	-10%
CC(C)Cc1cc(C(=O)OC2CCCCCC2)[nH]n1	1%

SMILES	% Inhibition
Nc1ccc(Cc2nnc3n2CCC3)cc1	2%
Cn1c(N2CCN(c3ccccn3)CC2)nc2c1c(=O)n(Cc1ccc(Cl)cc1)c(=O)n2C	3%
Cc1cccc(CNC(=O)NC2CCOC2c2ccc(Cl)cc2)n1 (stereo not given)	-15%
CN1CCCN(C(=O)[C@@H]2Cc3ccccc3C(=O)O2)CC1	-14%
COc1ccc(S(=O)(=O)N[C@H]2CO[C@@H](CN3CCC(F)(F)C3)[C@@H]2O)cc1	-4%
CCn1cc(C(=O)O)c(=O)c2cc(F)c(N3CCN(S(=O)(=O)c4ccccc4)CC3)cc21	-10%
Cc1ccc(NC(=O)NCc2ccccn2)nc1	-15%
CC(NCC(O)Cn1c(-c2ccccc2)c(-c2ccccc2)c2ccc3ccccc3c21)c1ccccc1 (stereo not given)	88%
c1ccc(Oc2ccc(-c3csc4nc5ccccc5n34)cc2)cc1	4%
Cc1ccc(C(=O)N(Cc2cccc(F)c2)c2ccc(CC(=O)N[C@@H](C)c3ccccc3)cc2)cc1	81%
CCC(CC)C(=O)Nc1cc(C2CC2)nn1-c1nc(-c2ccccc2)cc(=O)[nH]1	50%
CCc1ccc(NC(=O)Cc2c(C)nc3nc(-c4ccccc4C)nn3c2C)cc1	0%
O=C(Cn1cccn1)Nc1cccc(S(=O)(=O)N2CCCC2)c1	-7%
N#Cc1cccc(CNCC2(N3CCOCC3)CCCCC2)c1	2%
Cn1c(-c2ccc3c(c2)OCO3)cnc1NCc1cccc(Cl)c1	4%
COCc1cnc(NC(=O)NC2(c3ncccn3)CCOCC2)s1	1%
O=C(Nc1sc2c(c1C(=O)O)CCC2)c1ccsc1	-3%
COc1nc(N)nc(C(Cl)(Cl)Cl)n1	0%
O=C(Cn1cccn1)N1CC(c2nc(-c3ncccn3)no2)C1	5%
COc1cc(=O)c(C(=O)N2CCC(C(N)=O)CC2)nn1-c1ccc(F)c(F)c1	3%
CCCn1nc(-n2cnnc2)c(NS(=O)(=O)c2ccc(Br)cc2)c1C	2%
CC(C#N)CNCCC(C)c1ccccc1 (stereo not given)	1%
O=C(CN1C(=O)COc2cc(Br)ccc21)Nc1cccc2ccccc12	1%
Cc1ccnc(-c2noc(Cn3c(=O)c(C)cn(C)c3=O)n2)c1	9%
CCc1cc(CC)c(-c2cc(-c3ccccc3)on2)c(CC)c1-c1cc(-c2ccccc2)on1	12%

SMILES	% Inhibition
CCC1CC(CC(=O)NS(=O)(=O)c2ccnn2C)CCO1 (stereo not given)	-1%
Cc1cccc(N(C)C(=O)c2cc(-c3cccc(Cl)c3)[nH]n2)c1	-4%
O=C(c1cc(F)c(F)cc1Cl)N1CCC2CCC(C1)N2 (stereo not given)	-18%
CN(Cc1ccc(N2CCOCC2)cc1)S(=O)(=O)c1ccc2c(c1)OCCCO2	1%
O=C(NCCC(=O)N1CCCCCC1)c1cc(Cl)c2c(c1)OCCCO2	2%
Cc1ccc(NC(=O)C2C3NC(=O)N(c4ccccc4)C2(C)Oc2ccc(C)cc23)c(C)c1 (stereo not given)	-9%
CC(C)Oc1cccnc1C(=O)N(C)c1cnn(C)c1	-5%
O=c1[nH]nc(-c2ccc3ccccc3c2)c2conc12	18%
COc1cc([C@H]2CC(O)=Nc3c2c(-c2ccccc2)nn3-c2ccccc2)ccc1O	4%
CCN(CCCC(=O)c1ccc(F)cc1)CCc1ccccc1	-13%
CC(=O)Nc1cccc(NC(=O)Cn2c(=O)n(CCc3cccs3)c(=O)c3ccccc32)c1	6%
C[C@@H](CNS(=O)(=O)c1ccco1)N(C)S(=O)(=O)c1ccco1	-2%
c1ccc(Oc2ccnc(NCC34COCCN3CCOC4)n2)cc1	-10%
Cc1cccc(NC(=O)[C@H]2CCN(c3cn[nH]c(=O)c3)C2)c1	2%
O=C(Nc1ccccc1)c1cccc(CN2CCN3CCOC[C@@H]3C2)c1	-5%
Cc1cc(C)cc(-n2c(=O)c3sccc3n(CC(=O)N3CCCCC3)c2=O)c1	-13%
COc1ccc(-c2cc(C(=O)N[C@H]3CCN(c4ccc(=O)[nH]n4)C3)c(C)n2C)cc1	69%
COCc1c(Br)c(C)nc(O)c1C#N	-8%
O=C(Nc1ccccc1)c1c([O-])n(-c2ccccc2)n[n+]1C[C@@H](O)CN1CCCCC1	2%
C[C@H](C(=O)Nc1nccn2ccnc12)c1ccccc1	-2%
N#C[C@@H](C(=O)Nc1cccnc1)c1ccc(F)cn1	-3%
O=C(c1coc(-c2ccccc2)n1)N1CCc2cc(Br)ccc21	-4%
CC(C)[C@H](NC(=O)Nc1cc(Cl)ccc1F)C(N)=O	-9%
CCOC(=O)NCC#CCOc1ccccc1C(N)=O	-15%
CC1(O)CC2CCC(C1)N2C(=O)c1cc(Br)c2c(c1)OCCO2 (stereo not given)	-10%
